Data: the supplement of paper PMC3334620
The full ranking holds about 33,000 sequences; the median of “E-score (-0.5 to 0.5)” is about -0.017, and the highest 2% start at about 0.3. Some of the results follow.

Each sequence was assayed against T1, Sut1 (UniProt P53032) (assay: PBM E-score (8-mer binding enrichment) (E-score (-0.5 to 0.5)); higher = stronger / more preferred TF binding; most listed sequences are background and not binding sites). Conditions: protein concentration: 200 nM; construct: GST-full length.
T1 sequence: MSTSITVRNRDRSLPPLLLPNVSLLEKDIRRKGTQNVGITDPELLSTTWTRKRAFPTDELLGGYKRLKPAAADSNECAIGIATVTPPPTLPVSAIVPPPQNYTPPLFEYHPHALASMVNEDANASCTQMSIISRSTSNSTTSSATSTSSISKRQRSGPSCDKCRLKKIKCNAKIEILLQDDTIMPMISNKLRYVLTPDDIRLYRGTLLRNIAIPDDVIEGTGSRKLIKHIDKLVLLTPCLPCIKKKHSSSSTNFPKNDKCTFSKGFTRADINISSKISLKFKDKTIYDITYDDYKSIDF
How it was run: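 Detection of bound protein used fluorescent anti-GST, with scans normalised by masliner. The proteins were GST-tagged yeast transcription factors applied at about 100-200 nM to universal all-10-mer Agilent arrays made double-stranded by primer extension. Each ungapped eight-base word, pooled with its reverse complement, was scored with an E-score from the Universal PBM Analysis Suite.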

Going from CGATATGA to GTAAGTGA, the “PBM E-score” value rises from -0.0866 to 0.136.

Compared with CATTAAGA, TATGCAGA is lower in “PBM E-score” value: 0.00184 for the first, -0.0195 for the second.

Going from GGGCTCTA to AGCAGCCC, the “PBM E-score” value falls from -0.156 to -0.174.

Compared with ACATAAAG, CAGTCAAC is lower in “PBM E-score” value: 0.188 for the first, -0.182 for the second.

Going from AAAACAGG to ATGCACAG, the “PBM E-score” value falls from -0.0709 to -0.229.

Compared with AGACAACC, AATGTCAA is lower in “PBM E-score” value: 0.172 for the first, -0.0431 for the second.

Compared with AGCCTGAG, CAGTTTTC is higher in “PBM E-score” value: -0.276 for the first, 0.0987 for the second.

Compared with AGGACGTA, GGTCGGAA is higher in “PBM E-score” value: -0.139 for the first, 0.145 for the second.

First: AGACGAAC
Second: ACCAGGTC
The “PBM E-score” value of the first is higher: 0.0923 for the first, -0.142 for the second.

Compared with CTCTACAC, CATGTGGA is higher in “PBM E-score” value: -0.197 for the first, -0.078 for the second.

First: ATCACACC
Second: GGGCTCAC
The “PBM E-score” value of the first is higher: 0.0238 for the first, -0.236 for the second.

First: CTTGATCA
Second: CAGACCGA
The “PBM E-score” value of the first is higher: 0.00233 for the first, -0.102 for the second.

Going from GCCACAAA to ACGAATCT, the “PBM E-score” value falls from -0.0017 to -0.104.

First: CGATTCAA
Second: AGGATATC
The “PBM E-score” value of the first is higher: -0.015 for the first, -0.0305 for the second.

Compared with ATAGTCAC, AGTGTCCG is higher in “PBM E-score” value: 0.0579 for the first, 0.168 for the second.

First: GCTCTGAA
Second: ATCCGGGA
The “PBM E-score” value of the first is lower: -0.186 for the first, 0.0768 for the second.

Going from ACGGTAAC to AAGGTCCC, the “PBM E-score” value falls from 0.21 to -0.236.

Compared with CGGCGCTA, ACCAAGGC is lower in “PBM E-score” value: -0.0937 for the first, -0.175 for the second.

Going from CGCAAACG to CAAACCGG, the “PBM E-score” value rises from -0.00322 to 0.125.

Going from GCAGATGA to CCTATGTA, the “PBM E-score” value falls from 0.00901 to -0.187.

First: GTATAGAC
Second: AGCAGGTA
The “PBM E-score” value of the first is higher: 0.0514 for the first, -0.103 for the second.

Compared with CGATGAGA, AGGGTAAC is lower in “PBM E-score” value: 0.0167 for the first, -0.186 for the second.

Compared with CCTGCAAC, ATACAGGC is higher in “PBM E-score” value: -0.191 for the first, 0.00692 for the second.

First: ATTAAATA
Second: AGATGTAC
The “PBM E-score” value of the first is higher: 0.315 for the first, -0.0447 for the second.

Going from ATTATCAG to GTCTGTGA, the “PBM E-score” value falls from -0.0533 to -0.233.

Going from AGTACTGC to ATGTGCTG, the “PBM E-score” value rises from -0.161 to -0.0244.

First: CAAGAAAG
Second: CTTGTATA
The “PBM E-score” value of the first is higher: 0.181 for the first, 0.166 for the second.

Compared with CCACCCCC, TCTAACAA is higher in “PBM E-score” value: -0.226 for the first, 0.177 for the second.

First: TCCCGGCA
Second: CCAATCAC
The “PBM E-score” value of the first is higher: -0.0887 for the first, -0.127 for the second.

Going from AGGAACCA to GGCCCGTA, the “PBM E-score” value falls from -0.0989 to -0.129.

Compared with ACTGAATC, GAGTCGTA is higher in “PBM E-score” value: -0.114 for the first, 0.0883 for the second.

First: CCTTTGCG
Second: AATTCTAT
The “PBM E-score” value of the first is lower: -0.119 for the first, 0.128 for the second.

Compared with GTTGTGTA, AGGAATCA is higher in “PBM E-score” value: 0.0519 for the first, 0.12 for the second.

First: AGCCCTGA
Second: CACTTCCC
The “PBM E-score” value of the first is lower: -0.191 for the first, 0.0121 for the second.

Compared with ATTTTGGA, AATTGTAT is lower in “PBM E-score” value: 0.229 for the first, 0.114 for the second.

First: TGTCAAAA
Second: ACAGTGTC
The “PBM E-score” value of the first is higher: 0.189 for the first, -0.114 for the second.

Compared with CTGAAATC, CTCTAGGA is lower in “PBM E-score” value: 0.0241 for the first, -0.277 for the second.

Going from AAAAAAGG to CTTCACCA, the “PBM E-score” value falls from 0.225 to -0.163.

Compared with AGGAAATA, ACACTCAG is lower in “PBM E-score” value: 0.184 for the first, -0.253 for the second.

Compared with CCGGCCGC, CCGTACGA is higher in “PBM E-score” value: -0.0166 for the first, 0.118 for the second.

First: AGTCATGC
Second: CCCACGTA
The “PBM E-score” value of the first is lower: -0.253 for the first, -0.0462 for the second.

Compared with CAGGACAA, GAAAATCA is lower in “PBM E-score” value: 0.183 for the first, 0.159 for the second.

Compared with GATCCGGA, ATACGGCG is lower in “PBM E-score” value: 0.324 for the first, 0.0563 for the second.

Compared with AATTTCGC, ATAGCATC is lower in “PBM E-score” value: 0.136 for the first, 0.0409 for the second.

First: ATATTTAG
Second: GCGGTCGA
The “PBM E-score” value of the first is higher: 0.166 for the first, 0.0161 for the second.

Compared with CGGGTATC, TGGGGCAA is lower in “PBM E-score” value: -0.222 for the first, -0.261 for the second.

Going from AGGAATAC to CATAAAGC, the “PBM E-score” value falls from -3e-05 to -0.104.

Going from GGGTTATA to ATACACAG, the “PBM E-score” value rises from 0.0268 to 0.116.

Going from CATTCCAA to CGCCAGAA, the “PBM E-score” value falls from -0.035 to -0.038.

First: AAGCTCCA
Second: ACCGGCCC
The “PBM E-score” value of the first is higher: -0.0213 for the first, -0.177 for the second.

Compared with CTAGAAGA, TTAGGAAA is higher in “PBM E-score” value: 0.0578 for the first, 0.0746 for the second.

Going from CCAGGCGA to ATCAGCTG, the “PBM E-score” value rises from -0.308 to -0.0324.

Going from GATCGTTA to GATGACGA, the “PBM E-score” value falls from 0.0116 to -0.0657.

Going from AGGACACA to CACCAGAA, the “PBM E-score” value falls from 0.0491 to -0.185.

Compared with TCCTAAAA, CTTCCGAA is higher in “PBM E-score” value: 0.00189 for the first, 0.233 for the second.

Compared with GCATCGAC, TAACCCCA is higher in “PBM E-score” value: -0.167 for the first, -0.072 for the second.

Going from CGGCCACC to CCAATGAC, the “PBM E-score” value falls from -0.0332 to -0.0884.

First: CATACGCG
Second: GCCATGAA
The “PBM E-score” value of the first is lower: -0.172 for the first, 0.0219 for the second.

First: GGAGACGA
Second: CCCTTGCA
The “PBM E-score” value of the first is higher: 0.0626 for the first, -0.258 for the second.

First: GTCAGACA
Second: ATGCGGCC
The “PBM E-score” value of the first is higher: -0.111 for the first, -0.208 for the second.

First: ACACGGCT
Second: ATACCAAC
The “PBM E-score” value of the first is lower: -0.139 for the first, 0.0245 for the second.

First: AATTGCTG
Second: CCGCTGGA
The “PBM E-score” value of the first is higher: 0.0942 for the first, -0.0401 for the second.

Going from CGTAATAC to ACCCCGTG, the “PBM E-score” value rises from 0.129 to 0.19.

First: ATTATTCG
Second: CGAGCGAG
The “PBM E-score” value of the first is higher: 0.277 for the first, 0.196 for the second.

Going from GTAAGGAA to GTAGCATA, the “PBM E-score” value rises from -0.0925 to -0.00127.

Going from TTAAAAAA to CACACTAC, the “PBM E-score” value falls from 0.282 to -0.171.

First: AATTTAAC
Second: CATGTGCC
The “PBM E-score” value of the first is higher: 0.255 for the first, -0.156 for the second.

First: CCGTATCC
Second: ATCCACGG
The “PBM E-score” value of the first is lower: 0.0473 for the first, 0.102 for the second.

Going from GTCCCGTA to CCCATGGC, the “PBM E-score” value falls from -0.143 to -0.293.

First: GTCAAACA
Second: AATTTGCA
The “PBM E-score” value of the first is lower: -0.0968 for the first, 0.126 for the second.

First: GCGTAACA
Second: ATAAACAA
The “PBM E-score” value of the first is lower: -0.0695 for the first, 0.275 for the second.

Compared with AGTTTGTG, CTCATGAA is lower in “PBM E-score” value: 0.0471 for the first, -0.0491 for the second.

Compared with AGGGATAT, CTCCTTCA is lower in “PBM E-score” value: -0.0535 for the first, -0.116 for the second.

First: CAGGGGCA
Second: GTACATTA
The “PBM E-score” value of the first is lower: -0.253 for the first, 0.215 for the second.

Going from AAGGATTA to AGGTTGAC, the “PBM E-score” value falls from 0.0709 to -0.0882.

Compared with ATCAGACA, AACTTGCG is higher in “PBM E-score” value: -0.0432 for the first, -0.0193 for the second.

Going from CTAGTTAC to CATCAGGG, the “PBM E-score” value falls from -0.0636 to -0.149.

Compared with AGCAACCG, CCGATCCA is lower in “PBM E-score” value: -0.0232 for the first, -0.0263 for the second.

Compared with AATCGGCC, ACCCTCCA is lower in “PBM E-score” value: -0.109 for the first, -0.279 for the second.

Compared with GGTGATTA, AACGGGCT is lower in “PBM E-score” value: 0.0889 for the first, -0.0517 for the second.

Compared with CAGGTGAG, GGCAATGA is higher in “PBM E-score” value: -0.208 for the first, -0.00098 for the second.

First: GAGTCGCA
Second: AAAGTTTC
The “PBM E-score” value of the first is lower: -0.207 for the first, 0.161 for the second.

First: CTGACTTC
Second: GGCCCCAC
The “PBM E-score” value of the first is higher: -0.061 for the first, -0.306 for the second.

Compared with CAAGTACA, CACGCTGG is lower in “PBM E-score” value: -0.05 for the first, -0.177 for the second.

First: ACATATTC
Second: CAGACGGA
The “PBM E-score” value of the first is higher: 0.182 for the first, 0.131 for the second.

First: ACTAGCAT
Second: AAACCTGT
The “PBM E-score” value of the first is lower: -0.274 for the first, -0.00648 for the second.
